Laboratory results from the supplement of paper PMC10126150.
Values marked as one replicate rest on one cluster of the flow cell; about a third of the high ones do not repeat.

System: ATP
Assay: switch fluorescence ratio, 500 uM ATP over buffer (Cy3 cluster intensity, sum of 5 cycles each) (fold (ratio)); higher = stronger signal-on switching upon ATP binding; sequences stand for … in TCGTCGGCAGCGTCAGATGTGTATAAGAGACAGTTTTTTTTTTTTTTTTTTTTTTTTT…TC
Details: aptamer strand: ATP DNA aptamer (quencher-CACCTGGGGGAGTATTGCGGAGGAAGG + anchor), 100 nM annealed; ATP concentration: 500 uM; one replicate
Summary of the method: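 Between each of five buffer/ATP cycles, the flow-cell was stripped with NaOH and re-annealed. Each cycle imaged Cy3-labelled switching-strand clusters, annealed to 100 nM quencher-labelled ATP aptamer on a modified Illumina MiSeq flow-cell, first in selection buffer and then after 15 min with 500 uM ATP at 22 °C. The fluorescence ratio is summed target-cycle over summed buffer-cycle Cy3 intensity per cluster, averaged per switch-domain sequence, with clusters outside 100-1000 RFU excluded.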
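Further: ATP exposure 15 min at 22 °C before imaging.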

| Sequence | switch fluorescence ratio |
| --- | --- |
| TTCAGTTCT | 0.987 |
| CCTGTAGGCA | 1.03 |
| TGTAGTGGTG | 0.907 |
| CGTTCGCGTC | 1.13 |
| AATCTATATC | 1.04 |
| AGAAGTGCTC | 1 |
| ATGGTATGCG | 0.971 |
| AAATTCGATC | 1.03 |
| CGTGTTAAGT | 0.985 |
| CTCGGTGATC | 1.06 |
| ATTACGCATT | 1.38 |
| GATAACCGTA | 1.07 |
| AATGCGAGTC | 1.03 |
| AGACAAGAGT | 1.01 |
| GTTGGACAAG | 1.02 |
| TCGCGCGCAA | 3.4 |
| TGTGCCATTT | 0.968 |
| TTCCTCGGA | 1.11 |
| GCACGAATCC | 1.12 |
| AGGAGGATTC | 1.01 |
| GGATTAGATA | 0.967 |
| GAATACGACT | 1.08 |
| AAAAAATGCG | 1.02 |
| AACGGATCAG | 1.04 |
| GGTGACAGCC | 0.982 |
| ATCGACGCGT | 1.04 |

| Sequence | switch fluorescence ratio |
| --- | --- |
| GCCGGAACTC | 1.02 |
| TGTATAATAC | 2.52 |
| CATATCATGC | 0.984 |
| TCAGGAACAT | 1.04 |
| ATAATGATAG | 0.971 |
| AAAACTGTAG | 1.06 |
| CAGGGGACAG | 1.04 |
| CTCCTTTGAG | 0.99 |
| GTTCGATCGA | 0.963 |
| TGAGAAACGC | 0.95 |
| TGCCAATCTA | 1 |
| GACATTAGAT | 0.99 |
| TATATGTTGA | 0.994 |
| CTCGGAACAC | 2.47 |
| CCCGGGGTCA | 0.966 |
| CCTACGGTTG | 1.53 |
| CGTAGTCGT | 1.02 |
| GCGTTGGCG | 0.982 |
| AGCCCGCTGC | 1.23 |
| GTCACTTTTC | 2.09 |
| CCTAAGTACC | 1.31 |
| AGGTCTTATC | 1.05 |
| ATGTGACCCT | 1.03 |
| CATGATCCAG | 0.98 |
| AAGGACCCAC | 1.43 |
| GAAGGGCGCC | 0.998 |

| Sequence | switch fluorescence ratio |
| --- | --- |
| GATAAATACC | 0.98 |
| ACGACGGGAT | 1.07 |
| ATAAGAGCCA | 1.03 |
| TTTCATGA | 0.993 |
| CTGGTTTAAC | 1 |
| AGAGACAGGA | 0.986 |
| TTCTGTTTC | 1 |
| CAGGGTGTAC | 1.06 |
| TTATAAGAAT | 0.978 |
| TTATTTGTAG | 1.03 |
| GAGCTTGAGG | 0.978 |
| GGGTGTTG | 0.964 |
| CATGATACTG | 1.05 |
| ATGACCAATA | 1.08 |
| TACTGTTTTC | 1.01 |
| GCTGTATGG | 0.949 |
| GTAGGACTGG | 0.989 |
| AGAACCGAAG | 1.06 |
| GGGGCGGGG | 0.984 |
| TCTTCAAGT | 0.935 |
| CACACGGTCC | 1.07 |
| TTGTCTCATC | 0.972 |
| GTCGACCATC | 0.982 |
| TCCGTTCCTT | 1.05 |
| GTGGGGCACC | 0.961 |
| ATGAGTGACA | 1.02 |

| Sequence | switch fluorescence ratio |
| --- | --- |
| CTCATCCGAG | 1.09 |
| ACACTATCTA | 1.05 |
| GCCATTGAAG | 0.982 |
| TGCCTTGAGT | 1.03 |
| TCCTTTACTC | 1.23 |
| TATCTGGTGT | 1.01 |
| GGCATAGAGA | 1.06 |
| TCAGGAGTTC | 1 |
| ACGGCTCATT | 1.01 |
| AACTCGGATT | 1.06 |
| GGACGCCTGA | 1.1 |
| AACGACATCC | 1.09 |
| TTACAGATC | 1.06 |
| TGAACTCCAT | 1.01 |
| CGATACGTCA | 1.03 |
| CAAGTATGCT | 0.975 |
| CCTGTGACGC | 1.43 |
| AAGCTGGATA | 0.949 |
| TTGCGGTCGG | 0.951 |
| TTTTAACACC | 1.02 |
| AAGAAGTAGC | 1.03 |
| CATTGAGCAT | 1.13 |
| TTCTGTTTTC | 1.03 |
| CGCCTGGATG | 1.05 |
| CGTATAATGG | 0.926 |
| CTTTGCTAAA | 1 |

| Sequence | switch fluorescence ratio |
| --- | --- |
| CACTTAGTGA | 0.994 |
| AGTACTAAAT | 0.939 |
| ATATCCCCCG | 1.18 |
| GTATAGCCTT | 0.989 |
| TTCTATTGC | 1.07 |
| GAACGTGGA | 0.99 |
| GGACCACAAT | 1.07 |
| GGTCGCTCGA | 0.969 |
| TATGTAAGG | 1.02 |
| ATGGCCGTAA | 1.01 |
| ATCAACACG | 1.06 |
| AGCATTCTTG | 0.99 |
| TAGCTTTGTT | 1.01 |
| AATCTACACG | 1.09 |
| CATAGGTGCA | 1.06 |
| CGATATTGCT | 0.982 |
| TTGCTCGATG | 0.97 |
| CTGATACTTG | 1.02 |
| GCTCTATTG | 0.968 |
| CAGACGGGTA | 1.05 |
| TTGAATCACT | 1.02 |
| CGGACAGTTT | 1.05 |
| ATTCGTATCC | 0.977 |
| CGCAAACGGT | 3.18 |
| GTAATATCCA | 1.01 |
| TTTTGGTAAG | 1.02 |

| Sequence | switch fluorescence ratio |
| --- | --- |
| CCATTCTCAC | 1.02 |
| CTAGTGCATG | 0.978 |
| TCAAACTATA | 1.03 |
| CGCGCAAGGG | 1.76 |
| TACGCAACTG | 1.54 |
| GGTTCGCGGA | 1.14 |
| CGGCTGCTTG | 1.01 |
| AAAAGATCTG | 0.988 |
| TGGTTCCTTA | 1.01 |
| ACAGGGCGCT | 0.987 |
| ACTGGCTCGG | 1.04 |
| CCGTCTAGGC | 1.06 |
| TTTAGTGAGT | 0.995 |
| CGTATCAGAA | 1.02 |
| AGCACAGACG | 1.16 |
| CATAATACCG | 1.05 |
| TACTTGTCTA | 0.995 |
| GCTCGCAGCA | 1.03 |
| ATGTCCAGGC | 1.03 |
| TAGTAAATAG | 1.04 |
| GAGTCAGGTT | 1.01 |
| GAGCGTGGCC | 1.02 |
| CGCCGGCAGG | 1.04 |
| TACAGCGTAT | 0.995 |
| GACTTGTGCT | 0.933 |
| TAATCATCTG | 0.999 |

| Sequence | switch fluorescence ratio |
| --- | --- |
| TTAAGATTAC | 1.03 |
| GCGGCAGCGT | 0.966 |
| GATACCCTCA | 1.07 |
| AGAATGTAAG | 1.01 |
| AATAAGTCTA | 1.01 |
| TGTTCAAAAG | 1.05 |
| TCCGGACTTA | 1.06 |
| ACCGGGGTTG | 1.01 |
| GCAAGTCCGG | 1.04 |
| GCAAGAACCT | 1.72 |
| CATCGAGTTA | 0.957 |
| TGCATAGGAT | 0.986 |
| AGTAAAGAGC | 0.959 |
| ATACAGGGT | 1 |
| AAGTGAAAGG | 0.966 |
| TTCCACTGAG | 1.03 |
| TTCTTAAGTT | 1.02 |
| AAGTTGGTAT | 0.965 |
| CTAGGGGGAA | 1.02 |
| GCTACAGGGC | 1.09 |
| CCGGGGTAAC | 1.38 |
| TTCTTCAACG | 1.05 |
| GCTGATTGCT | 0.997 |
| ACCCGTACCT | 1.38 |
| TTAGTGTTCG | 0.977 |
| CGTTCCCCGT | 1.3 |

| Sequence | switch fluorescence ratio |
| --- | --- |
| CTGACTCCTA | 1.83 |
| CGACGGGATT | 1.7 |
| GGGATTCCAC | 0.968 |
| TAAAGTAGCC | 1.04 |
| TTAATTAGCC | 0.993 |
| TTCCGTTCCA | 1.03 |
| GTTACACATT | 1.03 |
| TTAGGCACCT | 1.11 |
| GTGTGTATGG | 0.943 |
| AGGTAAACCA | 1.05 |
| CAACAAAGGT | 1.01 |
| GTCACGGGGT | 1.02 |
| CGGTCTCTAT | 0.992 |
| TAATTGAAGT | 0.955 |
| TCTTTTTAAA | 1.09 |
| CTAGGCCGG | 1.03 |
| CATGGATTTG | 0.996 |
| TCCGAGATTT | 1.03 |
| TGCCTATAGG | 1.02 |
